The supplement of paper PMC8728848
This is one part of the list.

Key:
Assay in all cases: glycan array binding signal (z-score within array); higher = stronger binding
Details in all cases: glycan notation: IUPAC condensed, linker removed
Gal(b1-3)GlcNAc(b1-2)Man = molecular target: Gal(b1-3)GlcNAc(b1-2)Man
In short: (§1)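 Glycan array data came from 3228 arrays in the Consortium for Functional Glycomics database, and only arrays with an available protein sequence were kept. Glycan names were put into IUPAC-condensed notation, and columns mapping to the same glycan were averaged. The binding signal is a within-array Z-score, averaged across arrays of one protein sequence run at different concentrations or buffers and across linkers. A negative Z-score can be read as non-binding.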

[1] = molecular target: Gal(b1-3)GlcNAc(b1-2)Man(a1-3)[Gal(b1-3)GlcNAc(b1-2)Man(a1-6)]Man(b1-4)GlcNAc(b1-4)GlcNAc
In short: as §1

[2] = molecular target: Gal(b1-3)GlcNAc(b1-2)Man(a1-3)[Gal(b1-3)GlcNAc(b1-2)Man(a1-6)]Man(b1-4)GlcNAc(b1-4)[Fuc(a1-6)]GlcNAc
In short: as §1

[3] = molecular target: Gal(b1-3)GlcNAc(b1-2)Man(a1-3)[GlcNAc(b1-4)][Gal(b1-3)GlcNAc(b1-2)Man(a1-6)]Man(b1-4)GlcNAc(b1-4)GlcNAc
In short: as §1

[4] = molecular target: Gal(b1-3)GlcNAc(b1-2)[Gal(b1-3)GlcNAc(b1-6)]Man(a1-6)[Gal(b1-3)GlcNAc(b1-2)Man(a1-3)]Man(b1-4)GlcNAc(b1-4)GlcNAc
In short: as §1

[5] = molecular target: Gal(b1-3)GlcNAc(b1-3)Gal(b1-3)GlcNAc
In short: as §1

[6] = molecular target: Gal(b1-3)GlcNAc(b1-3)Gal(b1-4)Glc
In short: as §1

[7] = molecular target: Gal(b1-3)GlcNAc(b1-3)Gal(b1-4)GlcNAc
In short: as §1

[8] = molecular target: Gal(b1-3)GlcNAc(b1-3)Gal(b1-4)GlcNAc(b1-2)Man(a1-3)[Gal(b1-3)GlcNAc(b1-3)Gal(b1-4)GlcNAc(b1-2)Man(a1-6)]Man(b1-4)GlcNAc(b1-4)GlcNAc
In short: as §1

[9] = molecular target: Gal(b1-3)GlcNAc(b1-3)Gal(b1-4)GlcNAc(b1-2)[Gal(b1-3)GlcNAc(b1-3)Gal(b1-4)GlcNAc(b1-6)]Man(a1-6)[Gal(b1-3)GlcNAc(b1-3)Gal(b1-4)GlcNAc(b1-2)Man(a1-3)]Man(b1-4)GlcNAc(b1-4)[Fuc(a1-6)]GlcNAc
In short: as §1

[10] = molecular target: Gal(b1-3)GlcNAc(b1-3)Gal(b1-4)GlcNAc(b1-3)Gal(b1-4)GlcNAc(b1-2)[Gal(b1-3)GlcNAc(b1-3)Gal(b1-4)GlcNAc(b1-3)Gal(b1-4)GlcNAc(b1-6)]Man(a1-6)[Gal(b1-3)GlcNAc(b1-3)Gal(b1-4)GlcNAc(b1-3)Gal(b1-4)GlcNAc(b1-2)Man(a1-3)]Man(b1-4)GlcNAc(b1-4)[Fuc(a1-6)]GlcNAc
In short: as §1

[11] = molecular target: Gal(b1-3)GlcNAc(b1-3)Gal(b1-4)GlcNAc(b1-6)[Gal(b1-3)GlcNAc(b1-3)]Gal(b1-4)Glc
In short: as §1

[12] = molecular target: Gal(b1-3)GlcNAc(b1-3)Gal(b1-4)[Fuc(a1-3)]GlcNAc
In short: as §1

[13] = molecular target: Gal(b1-3)GlcNAc(b1-3)Gal(b1-4)[Fuc(a1-3)]GlcNAc(b1-6)[Gal(b1-3)GlcNAc(b1-3)]Gal(b1-4)Glc
In short: as §1

[14] = molecular target: Gal(b1-3)GlcNAc(b1-3)GalNAc
In short: as §1

[15] = molecular target: Gal(b1-3)GlcNAc(b1-6)Gal(b1-4)GlcNAc
In short: as §1

[16] = molecular target: Gal(b1-3)GlcNAc(b1-6)GalNAc
In short: as §1

[17] = molecular target: Gal(b1-3)GlcNAc(b1-6)[Gal(b1-3)]GalNAc
In short: as §1

Gal(b1-3)GlcNAc6S = molecular target: Gal(b1-3)GlcNAc6S
In short: as §1

[18] = molecular target: Gal(b1-3)[Fuc(a1-4)]GlcNAc
In short: as §1

[19] = molecular target: Gal(b1-3)[Fuc(a1-4)]GlcNAc(b1-2)Man
In short: as §1

[20] = molecular target: Gal(b1-3)[Fuc(a1-4)]GlcNAc(b1-2)Man(a1-3)[Gal(b1-3)[Fuc(a1-4)]GlcNAc(b1-2)Man(a1-6)]Man(b1-4)GlcNAc(b1-4)[Fuc(a1-6)]GlcNAc
In short: as §1

[21] = molecular target: Gal(b1-3)[Fuc(a1-4)]GlcNAc(b1-3)Gal(b1-3)[Fuc(a1-4)]GlcNAc
In short: as §1

[22] = molecular target: Gal(b1-3)[Fuc(a1-4)]GlcNAc(b1-3)Gal(b1-4)[Fuc(a1-3)]GlcNAc
In short: as §1

[23] = molecular target: Gal(b1-3)[Fuc(a1-4)]GlcNAc(b1-6)GalNAc
In short: as §1

[24] = molecular target: Gal(b1-3)[GlcNAc(b1-6)]GalNAc
In short: as §1

[25] = molecular target: Gal(b1-3)[Neu5Ac(a2-6)]GalNAc
In short: as §1

[26] = molecular target: Gal(b1-3)[Neu5Ac(a2-6)]GlcNAc(b1-4)Gal(b1-4)Glc
In short: as §1

[27] = molecular target: Gal(b1-3)[Neu5Ac(b2-6)]GalNAc
In short: as §1

Gal(b1-4)Gal = molecular target: Gal(b1-4)Gal
In short: as §1

[28] = molecular target: Gal(b1-4)GalNAc(a1-3)[Fuc(a1-2)]Gal(b1-4)GlcNAc
In short: as §1

[29] = molecular target: Gal(b1-4)GalNAc(b1-3)[Fuc(a1-2)]Gal(b1-4)GlcNAc
In short: as §1

Gal(b1-4)Glc = molecular target: Gal(b1-4)Glc
In short: as §1

Gal(b1-4)Glc6S = molecular target: Gal(b1-4)Glc6S
In short: as §1

Gal(b1-4)GlcNAc = molecular target: Gal(b1-4)GlcNAc
In short: as §1

[30] = molecular target: Gal(b1-4)GlcNAc(a1-6)Gal(b1-4)GlcNAc
In short: as §1

Gal(b1-4)GlcNAc(b1-2)Man = molecular target: Gal(b1-4)GlcNAc(b1-2)Man
In short: as §1

[31] = molecular target: Gal(b1-4)GlcNAc(b1-2)Man(a1-3)Man(b1-4)GlcNAc(b1-4)GlcNAc
In short: as §1

[32] = molecular target: Gal(b1-4)GlcNAc(b1-2)Man(a1-3)[Gal(b1-4)GlcNAc(b1-2)Man(a1-6)]Man(b1-4)GlcNAc(b1-4)GlcNAc
In short: as §1

[33] = molecular target: Gal(b1-4)GlcNAc(b1-2)Man(a1-3)[Gal(b1-4)GlcNAc(b1-2)Man(a1-6)]Man(b1-4)GlcNAc(b1-4)[Fuc(a1-6)]GlcNAc
In short: as §1

[34] = molecular target: Gal(b1-4)GlcNAc(b1-2)Man(a1-3)[Gal(b1-4)GlcNAc(b1-2)Man(a1-6)][Gal(b1-4)GlcNAc(b1-4)]Man(b1-4)GlcNAc(b1-4)[Fuc(a1-6)]GlcNAc
In short: as §1

[35] = molecular target: Gal(b1-4)GlcNAc(b1-2)Man(a1-3)[Gal(b1-4)GlcNAc(b1-2)Man(a1-6)][GlcNAc(b1-4)]Man(b1-4)GlcNAc(b1-4)[Fuc(a1-6)]GlcNAc
In short: as §1

[36] = molecular target: Gal(b1-4)GlcNAc(b1-2)Man(a1-3)[GlcNAc(b1-2)Man(a1-6)]Man(b1-4)GlcNAc(b1-4)GlcNAc
In short: as §1

[37] = molecular target: Gal(b1-4)GlcNAc(b1-2)Man(a1-3)[GlcNAc(b1-4)][Gal(b1-4)GlcNAc(b1-2)Man(a1-6)]Man(b1-4)GlcNAc(b1-4)GlcNAc
In short: as §1

[38] = molecular target: Gal(b1-4)GlcNAc(b1-2)Man(a1-3)[Man(a1-6)]Man(b1-4)GlcNAc(b1-4)GlcNAc
In short: as §1

B1: UDA (Urtica dioica), P11218 (protein)
chain: MMMRFLSAVVIMSSAMAVGLVSAQRCGSQGGGGTCPALWCCSIWGWCGDSEPYCGRTCENKCWSGERSDHRCGAAVGNPPCGQDRCCSVHGWCGGGNDYCSGSKCQYRCSSSVRGPRVALSGNSTANSIGNVVVTEPLFDQMFSHRKDCPSQGFYSYHSFLVAAESFPAFGTIGDVATRKREVAAFLAHISQATSGERSDVENPHAWGLCHINTTTVTENDFCTSSDWPCAAGKKYSPRGPIQLTHNFNYGLAGQAIGEDLIQNPDLVEKDPIISFKTALWFWMSQHDNKPSCHDIVLNANSAANRIPNKGVIGNIISRAFGHDDFAVRSSSIGFYKRYCDMLGVSYGHDLKYWFDNTPSSEFQRIQMRVAA
glycan array binding signal (z-score) (Gal(b1-3)GlcNAc(b1-2)Man): -0.182
glycan array binding signal (z-score) [1]: 0.04
glycan array binding signal (z-score) [2]: -0.156
glycan array binding signal (z-score) [3]: -0.144
glycan array binding signal (z-score) [4]: -0.16
glycan array binding signal (z-score) [5]: -0.165
glycan array binding signal (z-score) [6]: -0.215
glycan array binding signal (z-score) [7]: -0.151
glycan array binding signal (z-score) [8]: -0.157
glycan array binding signal (z-score) [9]: -0.086
glycan array binding signal (z-score) [10]: -0.083
glycan array binding signal (z-score) [11]: -0.094
glycan array binding signal (z-score) [12]: -0.176
glycan array binding signal (z-score) [13]: -0.175
glycan array binding signal (z-score) [14]: -0.175
glycan array binding signal (z-score) [15]: -0.182
glycan array binding signal (z-score) [16]: -0.186
glycan array binding signal (z-score) [17]: -0.177
glycan array binding signal (z-score) (Gal(b1-3)GlcNAc6S): -0.184
glycan array binding signal (z-score) [18]: -0.185
glycan array binding signal (z-score) [19]: -0.168
glycan array binding signal (z-score) [20]: -0.025
glycan array binding signal (z-score) [21]: -0.175
glycan array binding signal (z-score) [22]: -0.175
glycan array binding signal (z-score) [23]: -0.176
glycan array binding signal (z-score) [24]: -0.182
glycan array binding signal (z-score) [25]: -0.117
glycan array binding signal (z-score) [26]: -0.215
glycan array binding signal (z-score) [27]: -0.187
glycan array binding signal (z-score) (Gal(b1-4)Gal): -0.178
glycan array binding signal (z-score) [28]: -0.127
glycan array binding signal (z-score) [29]: -0.171
glycan array binding signal (z-score) (Gal(b1-4)Glc): -0.181
glycan array binding signal (z-score) (Gal(b1-4)Glc6S): -0.189
glycan array binding signal (z-score) (Gal(b1-4)GlcNAc): 0.006
glycan array binding signal (z-score) [30]: -0.161
glycan array binding signal (z-score) (Gal(b1-4)GlcNAc(b1-2)Man): -0.17
glycan array binding signal (z-score) [31]: 2
glycan array binding signal (z-score) [32]: -0.17
glycan array binding signal (z-score) [33]: -0.175
glycan array binding signal (z-score) [34]: -0.178
glycan array binding signal (z-score) [35]: -0.176
glycan array binding signal (z-score) [36]: -0.126
glycan array binding signal (z-score) [37]: -0.175
glycan array binding signal (z-score) [38]: 4.63
